According to the supplement of paper PMC10338343:
± gives the standard deviation. The entries are a selection whose mix differs from that of the whole data set.

System: MIWI (PIWIL1) piRISC loaded with L1MC piRNA (30 nt)
Test: pre-steady-state target cleavage rate (min^-1); MIWI and MILI are mouse PIWI proteins and EfPiwi is from a freshwater sponge; tags in brackets are library labels; higher = faster piRNA-guided slicing of the target
Conditions: guide: L1MC piRNA 5'p-UAACUAAAUACUAUGCAAGCUGUAGGUCCU
In short: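 Reactions were run for 0–8 or 0–960 min at 33 °C in HEPES–potassium acetate buffer, combining 1 nM active affinity-purified piRISC with one synthetic guide, […] transcribed, DNA-blocked target RNA library and, in some cases, 500 nM GTSF1 partner protein. Sequencing of uncleaved targets followed, with normalisation to depth and to weakly complementary targets. Three trials were pooled, k3 was capped at 0.0001 min^-1, and the pre-steady-state cleavage rate was taken from a burst-and-steady-state fit.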

[1] = auxiliary factor: 500 nM mouse GTSF1
[2] = auxiliary factor: none (no GTSF1)
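Further: 1 nM active piRISC with 0.1 nM target library at 33 °C single turnover.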

Row | Sequence | pre-steady-state target cleavage rate [1] | pre-steady-state target cleavage rate [2]
1 | UCCUGCUACUGCUUGCAUAGUAUAUAGUUA | 0.226 ± 0.024 | 0.0142 ± 0.0034
2 | UGGACCUAGAGCUUGCAUAGUAUUUAGUAA | 0.698 ± 0.054 | 0.0466 ± 0.011
3 | UCCUGGAACAGCUUGCAUAGUAUUUACAUA | 0.169 ± 0.03 | 0.0166 ± 0.0043
4 | UCCUGGAUGAGCUUACAUAGUAUUUAGUUA | 0.643 ± 0.057 | 0.0151 ± 0.0045
5 | UCCUGGAUCAGCAUGCAUAGUAUAUAGUUA | 0.442 ± 0.047 | 0.00638 ± 0.0021
6 | UCCUGGAUCAGCUUGCAUAGUAUUUAGUUC [g2:g22:cont:t1C] | 1.14 ± 0.052 | 0.0609 ± 0.012
7 | UCCUGGUACAGCUUGCACAGUAUUUAGUUA | 0.752 ± 0.024 | 0.054 ± 0.0089
8 | UCCUGGUACAGCUUGCAAAGUAUUUACAAA | 0.0891 ± 0.021 | 0.00374 ± 0.0025
9 | UGGACCUACAGCUUGCAUUGUAAUUAGUUA | 0.45 ± 0.035 | 0.0125 ± 0.0045
10 | UCCUCCUACAGCUUGCAUAGUAUUUAGUUUA | 1.1 ± 0.033 | 0.0676 ± 0.013
11 | UGGACCUUCAGCUUGCAUAGUAUAUAGUUA | 1 ± 0.053 | 0.0376 ± 0.0085
12 | UCCUGGAUGAGCUAGCAUAGAAUUUAGUUA | 0.0859 ± 0.012 | 0.00371 ± 0.0033
13 | AGGACCUACAGGUUGCUUAGUAUUUAGUUA | 1.07 ± 0.043 | 0.0215 ± 0.0041
14 | AGGACCUACAGCUUCAUAGUAUUUAGUUA | 1.11 ± 0.053 | 0.0309 ± 0.0073
15 | UCCACCUACAGCUUACAUAGUAUUUAGUUA | 0.753 ± 0.034 | 0.0222 ± 0.0039
16 | UCCUGGAUGAGCUUGCAUAGUAGUUAGUUA | 0.269 ± 0.022 | 0.0182 ± 0.005
17 | UCCUGGAUCAGCUUGCAUUGUAUAUAGUUA | 0.164 ± 0.015 | 0.0141 ± 0.0053
18 | UCGACCUAGAGCUUGCAUAGUUUUUAGUUA | 0.325 ± 0.023 | 0.0184 ± 0.0035
19 | UCCUGCUACAGGCUUGCAUAGUAUUUAGUUA | 0.88 ± 0.043 | 0.0342 ± 0.0051
20 | UGGACCUACAGCUUGCAUAGUAUUUACAUA | 0.155 ± 0.021 | 0.0194 ± 0.0042

Row | Sequence | pre-steady-state target cleavage rate [1] | pre-steady-state target cleavage rate [2]
21 | UCCUGGUACAGCUUGCAUAGUUAUUUAGUUA | 0.0264 ± 0.0086 | 0.00505 ± 0.0031
22 | UCCUCGUACACCUUGCAUAGUAUUUAGUUA | 0.866 ± 0.041 | 0.0345 ± 0.0061
23 | UCCUGGUACAGCUUGCAUAAUAUUUAGUUA | 0.455 ± 0.076 | 0.0236 ± 0.0056
24 | UGGACCUACAGCUUGCAAGUAUUUAGUUA | 0.305 ± 0.031 | 0.00674 ± 0.0026
25 | UCCUGGAUGACGUUGCAUAGUAUUUAGUUA | 0.0518 ± 0.0098 | 0.00346 ± 0.003
26 | AGGACCUAGAGCUUGCAUAGUAUUUAGUAA | 0.876 ± 0.056 | 0.089 ± 0.025
27 | UGGACCUACAGCUAGCUUAGUAUUUAGUUA | 1.24 ± 0.085 | 0.0122 ± 0.0034
28 | UCAACCUACAGCUUGCAUAGUAUUUAGUUA | 1.43 ± 0.04 | 0.0646 ± 0.011
29 | UCCUGGAUGAGCUUGCUUAGUAUAUAGUUA | 0.0747 ± 0.013 | 0.0101 ± 0.0035
30 | UCCUGGUACAGCUUGCAUAGUAGUUUAGUUA | 0.286 ± 0.026 | 0.00582 ± 0.0023
31 | UCCUGGCACAGCUUGCAUAGUAUUUAGUUA | 0.456 ± 0.081 | 0.0452 ± 0.011
32 | AGGACCUACAGCAUUGCAUAGUAUUUAGUUA | 1.28 ± 0.12 | 0.0689 ± 0.014
33 | AGGACCUACAGCUUGCUUAGUAUUUAGUUA | 1.43 ± 0.071 | 0.066 ± 0.015
34 | UGGACCUACAGCUUGCAUAGUAUUAUCUUA | 0.156 ± 0.028 | 0.006 ± 0.0019
35 | UCCACCAACAGCUUGCAUAGUAUAUAGUUA | 0.547 ± 0.036 | 0.0205 ± 0.0046
36 | UCCUGGAACAGCUUGCAUAGUAUUUAGCUUA | 0.283 ± 0.043 | 0.0543 ± 0.013
37 | UCCUGCUACAGCAUGCAUAGUAUUUAGUUA | 1.21 ± 0.086 | 0.0207 ± 0.0053
38 | UCGACCUACAGCUUUGCAUAGUAUUUAGUUA | 1.4 ± 0.061 | 0.0371 ± 0.0078
39 | UCCUGGAUCAGCUUGCAAAGUAUUUAGUAA | 0.684 ± 0.047 | 0.0174 ± 0.0048
40 | UGGACCUUGAGCUUGCAUAGUAUUUAGAAA | 0.283 ± 0.034 | 0.00743 ± 0.0027

Row | Sequence | pre-steady-state target cleavage rate [1] | pre-steady-state target cleavage rate [2]
41 | UCCUGGAUGAGCUUGCAUACUAUUAAGUUA | 0.0488 ± 0.0097 | 0.00664 ± 0.0032
42 | UCCUCCUACAGCUUGCAUUGUAUUUACUUA | 0.388 ± 0.031 | 0.0162 ± 0.0032
43 | UCCUGCAACAGCUUGCAUAGUAAUUAGUUA | 0.917 ± 0.058 | 0.0258 ± 0.007
44 | UCCUGCAUCAGCUUGCAUAGUAUUUAGUAA | 0.948 ± 0.058 | 0.0365 ± 0.0074
45 | UCCUGGAUCACGUUGCAUAGUAUUUAGUUA | 0.143 ± 0.02 | 0.00548 ± 0.0023
46 | UCCUGGAUGACCUUGCAUACUAUUUAGUUA | 0.0436 ± 0.0098 | 0.0117 ± 0.003
47 | UCCUGGAUGUGCUUGCAUAGUAUUUAGCUUA | 0.18 ± 0.024 | 0.0247 ± 0.0067
48 | UCCUGGAACAGCUUGCAUAGUAUAUAGUUA | 0.662 ± 0.044 | 0.0357 ± 0.0083
49 | ACGACCUACAGCUUGCAUAGAAUUUAGUUA | 0.533 ± 0.038 | 0.0408 ± 0.01
50 | UCCUGGUACAGCUUGCAUAGGAUUUAGUUA | 0.0182 ± 0.0045 | 0.0083 ± 0.0024
51 | UCCUGGAUCAGCUUGCAUAGUAUUUAGGUA | 0.35 ± 0.036 | 0.0219 ± 0.0041
52 | UCCUGGAACAGCUACCAUAGUAUUUAGUUA | 0.188 ± 0.015 | 0.00284 ± 0.0018
53 | UCCUGCUACAGCUUGCAUUGUAUUUAGAUA | 0.226 ± 0.027 | 0.0085 ± 0.003
54 | UCCUGGAUCAGCUUGCAUUGAAUUUAGUUA | 0.0553 ± 0.0084 | 0.00619 ± 0.0028
55 | UCCUGGUACACUUGCAUAGUAUUUAGUUA | 0.414 ± 0.058 | 0.0163 ± 0.0044
56 | UCGACCUACAGCUUGCAUUGUAUUUACUUA | 0.49 ± 0.028 | 0.0226 ± 0.0052
57 | UCCUGGAUGUGCUAUGCAUAGUAUUUAGUUA | 0.273 ± 0.025 | 0.00862 ± 0.0031
58 | UCCUCGUACAGCUUGCAUAGUAUUAAGUUA | 0.648 ± 0.041 | 0.0186 ± 0.0033
59 | AGGACGUAGAGCUUGCAUAGUAUUUAGUUA | 1.17 ± 0.072 | 0.047 ± 0.0083
60 | UGGACCUACACCUUGCAUAGUAUUUAGUAA | 0.699 ± 0.07 | 0.0318 ± 0.0058
